The text below walks through data of PubChem BioAssay AID360 (National Center for Advancing Translational Sciences (NCATS), 2006).

SMILES strings stand for the structures. In all, about 48,000 compounds went through this assay and about 550 (1.1%) were called active. Inconclusive results (about 4%) are left out. Rule as the data show it: active = potency below about 15 µM; inconclusive = mostly about 16 µM to 33 µM; inactive = weaker than that. The list shows a part of the results.
Potency is read from the fitted curve at half-maximal effect.

The assay concerns the target Lysosomal acid glucosylceramidase (Homo sapiens) (UniProt P04062). In words: Glucocerebrosidase.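 As to potency: the screen sought inhibitors.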 As to conditions: purified enzyme, resorufin glucoside fluorescence (screen aimed at inhibitors), 20 min; series mostly up to 77 µM; activity change, negative = inhibition: at the top concentration. The method in brief: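 Normal human glucocerebrosidase (0.2 nM final) was assayed with resorufin β-D-glucopyranoside (30 uM final) in 50mM citric acid/KH2PO4, 10mM sodium taurocholate, 0.01% tween-20, pH 5.9. Compounds were titrated; fluorescence (Ex 548, Em 600) read after 20 min at RT.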
UniProt P04062, sequence (P04062 whole entry, looked up): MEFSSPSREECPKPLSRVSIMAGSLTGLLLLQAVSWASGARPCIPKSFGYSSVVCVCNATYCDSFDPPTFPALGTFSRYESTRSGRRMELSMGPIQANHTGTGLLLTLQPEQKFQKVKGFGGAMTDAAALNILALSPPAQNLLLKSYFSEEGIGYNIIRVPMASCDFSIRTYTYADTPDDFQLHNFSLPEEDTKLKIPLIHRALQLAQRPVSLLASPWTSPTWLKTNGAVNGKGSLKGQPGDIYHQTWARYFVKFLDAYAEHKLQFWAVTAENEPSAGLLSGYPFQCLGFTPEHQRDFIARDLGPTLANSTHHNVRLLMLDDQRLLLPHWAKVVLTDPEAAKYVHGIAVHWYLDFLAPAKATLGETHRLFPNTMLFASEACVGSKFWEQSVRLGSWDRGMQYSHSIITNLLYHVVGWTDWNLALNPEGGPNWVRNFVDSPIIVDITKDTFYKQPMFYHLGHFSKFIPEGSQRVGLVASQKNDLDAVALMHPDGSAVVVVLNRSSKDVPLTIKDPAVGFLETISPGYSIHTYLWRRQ
As to `Cc1cc(NC(=O)c2ccccc2F)n(-c2nc3ccccc3[nH]2)n1`, the Potency was inactive: > 76.9 µM. Still for that read-out and setting: as for `COc1ccc(S(=O)(=O)Nc2cccc(SC)c2)cc1OC`, the figure is inactive: > 76.9 µM. On the same count and under the same terms, as for `Cc1ncoc1C(=O)Nc1cccc(Cl)c1`, the figure is inactive: > 76.9 µM; as for `COC(=O)Cn1c(=O)sc2ccccc21`, inactive: > 76.9 µM; as for `CCOC(=O)c1[nH]c(C)c(/C(O)=C2\C(=O)C(=O)N(CCN(C)C)C2c2ccncc2)c1C` (configuration not stated), inactive: > 76.9 µM. With `O=C(CCC(=O)c1cccs1)OCc1nc2ccccc2s1`, the Potency is inactive: > 76.9 µM.

As to `COc1cc(C2C(C#N)=C(N)Oc3n[nH]c(-c4ccccn4)c32)cc(OC)c1OC` (configuration not stated), the Potency is inactive: > 76.9 µM.

`O=C(Nc1cc(C(=O)N2CCCC2)ccc1N1CCCC1)c1ccccc1`: the Potency is inactive: > 76.9 µM. On to `COc1ccc(S(=O)(=O)N2CCOCC2)cc1C(=O)Nc1cc(C)on1`, for which the Potency is inactive: > 76.9 µM.

In the case of `COC(=O)c1cc(Br)c(=O)n(-c2ccc(OC)cc2)c1`, the Potency is inactive: > 76.9 µM. The same measure, in the same setting: to `Cc1nc2ccccn2c1/C(O)=C1\C(=O)C(=O)N(CCN2CCOCC2)C1c1ccncc1` (configuration not stated) belongs inactive: > 76.9 µM; to `CCc1ccc2[nH]c(=O)c(CN(Cc3ccco3)S(=O)(=O)c3ccc4c(c3)OCCO4)cc2c1`, inactive: > 76.9 µM; to `O=C(c1ccccc1)N(Cc1ccc2c(c1)OCO2)Cc1nc2ccccc2c(=O)[nH]1`, inactive: > 76.9 µM. For `Cc1cccc2cc(C(c3nnnn3Cc3ccc4c(c3)OCO4)N3CCCC3)c(=O)[nH]c12` (configuration not stated), the Potency is inactive: > 76.9 µM. With `CCC(C)NC(=O)CC(c1ccc(OC)cc1)n1cccc1` (configuration not stated), the Potency was inactive: > 76.9 µM.

`CC(OC(=O)c1nsc(Cl)c1Cl)C(=O)NCc1ccco1` (configuration not stated): the Potency was inactive: > 76.9 µM. Regarding `O=C(Cn1c(N2CCN(c3ccccc3)CC2)nc2ccccc21)c1ccccc1`, the Potency was inactive: > 76.9 µM. As for `COc1ccc2c(c1)CCCC21NC(=O)NC1=O` (configuration not stated), the Potency is inactive: > 76.9 µM. For `COc1ccc(-n2cnnc2)cc1`, the Potency was inactive: > 76.9 µM. Same read-out and setting: as for `CCOC(=O)CSc1nc(C)c(C(=O)OCC)s1`, the figure is inactive: > 76.9 µM; as for `COc1ccc2nc(NC(=O)Cn3cnc4c(=O)n(C)c(=O)n(C)c43)sc2c1`, inactive: > 76.9 µM; as for `Cc1c(O)c(CN2CCCC2)cc2c3c(c(=O)oc12)CCC3`, inactive: > 76.9 µM. Regarding `c1ccc2[nH]c(NC3=NCCC3)nc2c1`, the Potency is inactive: > 76.9 µM.

Take `CC12CN3CC(C)(CN(C1)C3c1ccc3c(c1)OCO3)C2=O` (configuration not stated): the Potency is inactive: > 76.9 µM.

Regarding `Cc1ccc(S(=O)(=O)N[C@@H](C)C(=O)N2CCC(C(=O)N3CCC[C@H]3C(=O)O)CC2)cc1`, the Potency is inactive: > 76.9 µM. As for `O=C(CCSc1nnc2ccccn12)Nc1ccc(F)cc1`, the Potency is inactive: > 76.9 µM. As for `CC(C)NC(=O)C1CCCN(S(C)(=O)=O)C1` (configuration not stated), the Potency was inactive: > 76.9 µM. `COc1ccccc1NC(=O)CCN1C(=O)C2CC=C(Cl)CC2C1=O` (configuration not stated): the Potency is inactive: > 76.9 µM. The same measure, in the same setting: as for `Cn1nnc(NCc2cc(Br)ccc2OCc2cccs2)n1`, the figure is inactive: > 76.9 µM; as for `O=C(CN1CCN(S(=O)(=O)c2ccc(F)cc2)CC1)Nc1cc(C(F)(F)F)ccc1Cl`, inactive: > 76.9 µM. Still for that read-out and setting: as for `O=C(Cc1c(O)c2ccccc2[nH]c1=O)NCc1cccc(F)c1`, the figure is inactive: > 76.9 µM; as for `CNC(=O)c1cc2c(=O)n3cc(C)ccc3nc2n(Cc2ccco2)c1=N`, inactive: > 76.9 µM.

With `COC(=O)c1ccccc1NC(=O)CN(C)S(=O)(=O)c1ccc(OC)cc1`, the Potency is inactive: > 76.9 µM.

As to `CCc1ccc(C(=O)Nc2ccc(S(=O)(=O)Nc3nc(C)cc(C)n3)cc2)o1`, the Potency is inactive: > 76.9 µM. On the same count and under the same terms, as for `NC(=O)c1ccc(NS(=O)(=O)c2ccccc2F)cc1`, the figure is inactive: > 76.9 µM.

Regarding `Cc1ccc(NC(=O)C2CCCN2S(=O)(=O)c2ccc(F)cc2)c(C)c1` (configuration not stated), the Potency was inactive: > 76.9 µM. Take `Clc1ccc2nc(SCc3nnc(-c4ccccc4)o3)[nH]c2c1`: the Potency is inactive: > 76.9 µM. With `CCC(C)NC(=O)C1CCN(S(=O)(=O)CC)CC1` (configuration not stated), the Potency was inactive: > 76.9 µM. On the same count and under the same terms, to `CCCC(=O)NCc1ccc2c(c1)cc(C)n2C` belongs inactive: > 76.9 µM; to `Cc1nc2c(nnn2Cc2ccccc2)c(=O)n1-c1ccccc1`, inactive: > 76.9 µM; to `Cc1nnc(C)n1/N=C/c1ccc(C(C)C)cc1`, inactive: > 76.9 µM. On the same count and under the same terms, to `c1ccc(OCCCc2nc(-c3ccncc3)no2)cc1` belongs inactive: > 76.9 µM; to `O=C(CN1C(=O)c2ccccc2C1=O)NCC1COc2ccccc2O1` (configuration not stated), inactive: > 76.9 µM; to `COC(=O)C1=C(N)Oc2cc(C)n(Cc3cccnc3)c(=O)c2C1c1cccc(OC)c1OC` (configuration not stated), inactive: > 76.9 µM. Turning to `Cc1ccc(C(=O)OCC(=O)Nc2ccc3c(c2)OCO3)o1`, the Potency was inactive: > 76.9 µM. Take `CCC1CCCCN1CCCNC(=O)C1CCC(=O)N1Cc1ccc(C)cc1` (configuration not stated): the Potency was inactive: > 76.9 µM. As to `N#Cc1cn(-c2ccccc2)nc1-c1cc2ccccc2oc1=O`, the Potency is inactive: > 76.9 µM. In the case of `Cc1noc(C)c1S(=O)(=O)N1CCC(C(=O)N2CCN(c3ccc(Cl)cc3)CC2)CC1`, the Potency is inactive: > 76.9 µM.

For the molecule `O=C(C1CCCCC1)N1CCN(S(=O)(=O)c2ccc(Cl)cc2)CC1`, the Potency is inactive: > 76.9 µM.

For `NC(=O)c1ccsc1NC(=O)C1CCCN1S(=O)(=O)c1ccc(Cl)cc1` (configuration not stated), the Potency is inactive: > 76.9 µM. With `COC(=O)c1c(NC(=O)CSc2nnnn2-c2ccccc2)sc2c1CCC(C)C2` (configuration not stated), the Potency was inactive: > 76.9 µM. Turning to `Cn1c(CNc2cccc(Cl)c2)nnc1SCC(=O)OC1CCCCC1`, the “activity change, negative = inhibition” value was inactive: -19.3%.

Take `Cc1ccc(-c2cc(C(=O)N3CCN(C(=O)c4ccco4)CC3)no2)cc1`: the Potency is inactive: > 76.9 µM.

Regarding `CCC1CCCCN1C(=O)Cn1c(=O)n(CCC(=O)NCc2ccco2)c(=O)c2sccc21` (configuration not stated), the Potency is inactive: > 76.9 µM. As to `Cc1nc(N2CCN(c3ccccc3)CC2)nc2c1C(=O)CCC2`, the Potency was inactive: > 76.9 µM. Consider `O=C(NCc1cccnc1)C1CC(c2ccc(F)cc2)=NO1` (configuration not stated), for which the Potency is inactive: > 76.9 µM. With `O=C(CSc1nnc(-c2ccccc2)n1Cc1ccccc1)N1CCOCC1`, the Potency is inactive: > 76.9 µM.
